Assay results: US20240247076A1

B1: huFE35huv1-Ld-Fc (Fc fusion)
chain: QVQLVESGGGSVQAGGSLRLSCTASGFTFDDSDMGWYRQAPGNECELVSTISSDGRGFYADSVKGRFTISQDNSKNTVYLQMNSLRAEDTAVYYCAAGWYGSFCSGLGQGTLVTVSS[sequence of human IgG1 Fc omitted]
B2: huFE35huv2-Ld-Fc (Fc fusion)
chain: B1 chain with S11L, A14P, T23A, Q71R, V78L
B3: huFE13huv1-Ld-Fc (Fc fusion)
chain: QVQLVESGGGSVQAGGSLRLSCAASGYTYSMGAMAWFRQAPGKEREGVALIATSSGFISYTDSVKGRFTISQDNSKNTVYLQMNSLRAEDTAVYYCAAGTQFSWSPGSYNYWGQGTLVTVSS[sequence of human IgG1 Fc omitted]
B4: huFE13huv2-Ld-Fc (Fc fusion)
chain: B3 chain with S11L, A14P, E44G, R45L, A49S, Q72R, V79L
B5: huFE56huv1-Ld-Fc (Fc fusion)
chain: QVQLVESGGGSVQAGGSLRLSCAASGHTYSSNYCMAWFRQAPGKEREGVAAIYSDGSTSYADSVKGRFTISKDNSKNTLYLQMNSLRAEDTAVYYCAATAYEGSWTGKQPLCLLYEYTYWGQGTLVTVSS[sequence of human IgG1 Fc omitted]
B6: huFE56huv2-Ld-Fc (Fc fusion)
chain: B5 chain with S11L, A14P, K72R
B7: huFE97huv1-Ld-Fc (Fc fusion)
chain: QVQLVESGGGSVQAGGSLRLSCTASEFTFDDSDMAWYRQAPGNECELVSTITSDGGTYYADSVKGRFTISQDNSKNTMYLQMNSLRAEDTAVYYCAADQWGSAEGDCTSSYPGGYWGQGTLVTVSS[sequence of human IgG1 Fc omitted]
B8: huFE97huv2-Ld-Fc (Fc fusion)
chain: B7 chain with S11L, A14P, T23A, Q71R, M78L
B9: huFE148huv1-Ld-Fc (Fc fusion)
chain: QVQLVESGGGSVQAGGSLRLSCAASGYTFNNNFVGWFRQAPGKEREGVAAIYSLGGSTYYADSVKGRFTISQDNSKNTVYLQMNSLRAEDTAVYYCAGAITWVPPLSHRRYTYWGQGTLVTVSS[sequence of human IgG1 Fc omitted]
B10: huFE148huv2-Ld-Fc (Fc fusion)
chain: B9 chain with S11L, A14P, E44G, R45L, A49S, Q72R, V79L, G98A

target: cynomolgus monkey FXI-CHis protein (cynomolgus monkey); assay: BLI, antibody captured on sensor, antigen in solution

Compared with B1, B2 is higher in Kd: less than 0.001 nM for the first, 0.00124 nM for the second.

Compared with B3, B4 is 1.6-fold higher in Kd: 12.7 nM for the first, 20.6 nM for the second.

B5 and B6 are within 1.5-fold of each other in Kd: 5.93 nM for the first, 7.23 nM for the second.

B7 and B8 cannot be ordered by Kd: less than 0.001 nM for the first, less than 0.001 nM for the second.

B9 and B10 are within 1.5-fold of each other in Kd: 0.987 nM for the first, 0.825 nM for the second.

Residue numbers refer to the chain shown, from its start.
